The structures appear in SMILES notation. The campaign covered roughly 310,000 compounds. About 14,000 (4.5%) showed an effect of 50% or more. The effect is printed as a negative number. The list shows a part of the results.

This note sets out measurements from publication PMC4336329 (PLoS ONE, 2015).
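Note: peak tail current of the secondary pulse compared with the same well before compound.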

The target of this experiment is human ether-à-go-go-related gene (hERG) potassium channel (human, UniProt Q12809). Nature of the experiment: primary screen, population patch clamp on CHO cells stably expressing hERG.
human ether-à-go-go-related gene (hERG) potassium channel, sequence (Q12809 whole entry, looked up): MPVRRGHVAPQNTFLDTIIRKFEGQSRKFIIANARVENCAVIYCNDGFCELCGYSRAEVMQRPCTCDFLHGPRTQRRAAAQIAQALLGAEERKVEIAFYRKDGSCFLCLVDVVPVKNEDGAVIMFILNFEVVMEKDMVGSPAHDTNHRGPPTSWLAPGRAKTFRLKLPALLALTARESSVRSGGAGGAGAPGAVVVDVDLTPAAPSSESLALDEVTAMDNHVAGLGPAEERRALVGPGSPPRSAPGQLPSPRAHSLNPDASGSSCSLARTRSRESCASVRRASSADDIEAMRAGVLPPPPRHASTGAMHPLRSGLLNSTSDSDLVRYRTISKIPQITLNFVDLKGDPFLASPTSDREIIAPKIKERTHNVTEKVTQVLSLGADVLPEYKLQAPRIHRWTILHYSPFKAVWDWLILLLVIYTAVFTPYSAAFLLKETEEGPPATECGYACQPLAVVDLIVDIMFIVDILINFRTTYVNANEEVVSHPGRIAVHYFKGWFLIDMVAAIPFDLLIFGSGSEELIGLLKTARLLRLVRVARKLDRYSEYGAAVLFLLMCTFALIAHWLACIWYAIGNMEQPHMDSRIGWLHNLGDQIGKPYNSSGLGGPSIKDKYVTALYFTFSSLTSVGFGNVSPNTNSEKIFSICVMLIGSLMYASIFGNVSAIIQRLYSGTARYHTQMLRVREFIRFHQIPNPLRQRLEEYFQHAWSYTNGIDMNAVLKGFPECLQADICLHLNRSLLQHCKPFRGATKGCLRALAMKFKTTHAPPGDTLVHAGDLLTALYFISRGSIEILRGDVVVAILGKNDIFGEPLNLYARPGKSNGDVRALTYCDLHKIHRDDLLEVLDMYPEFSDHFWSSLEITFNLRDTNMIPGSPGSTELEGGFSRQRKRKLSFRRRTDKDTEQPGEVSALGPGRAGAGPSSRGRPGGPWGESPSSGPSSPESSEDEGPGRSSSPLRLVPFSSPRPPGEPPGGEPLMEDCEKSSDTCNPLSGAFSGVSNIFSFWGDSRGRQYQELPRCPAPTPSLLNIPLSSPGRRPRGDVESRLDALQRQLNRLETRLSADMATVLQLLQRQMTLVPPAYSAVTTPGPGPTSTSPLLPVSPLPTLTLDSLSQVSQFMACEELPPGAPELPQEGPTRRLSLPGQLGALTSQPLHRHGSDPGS
Regarding `COc1ccccc1Cc1nc2ccccc2n1S(=O)(=O)c1ccc(Cl)cc1`, the “hERG current change (%, negative = inhibition) at 10uM” value is 13.4%.

With `COc1ccc(NC(=O)COC(=O)c2ccc(N3CCCC3=O)cc2)cc1OC`, the “hERG current change (%, negative = inhibition) at 10uM” value is 14.1%.

Turning to `CC1C(=O)Nc2ccc(S(=O)(=O)Nc3ccccc3Br)cc2NC1=O` (stereo not drawn), the “hERG current change (%, negative = inhibition) at 10uM” value is -5.66%.

For `CC(C)n1nc(C(=O)Nc2cccc(S(=O)(=O)NCc3ccco3)c2)c2ccccc2c1=O`, the “hERG current change (%, negative = inhibition) at 10uM” value is given as -16.7%.

Take `CN(CC(=O)NC(=O)NC1CCCCC1)CC(=O)Nc1ccc(Cl)cc1`: the “hERG current change (%, negative = inhibition) at 10uM” value is on record as -32.1%.

On to `O=C(Nc1cccc([N+](=O)[O-])c1)Nc1cnccn1`, for which the “hERG current change (%, negative = inhibition) at 10uM” value stood at 20.9%.

On to `O=C(CCNC(=O)N1CC(=O)Nc2ccccc21)NCCc1cccc(F)c1`, for which the “hERG current change (%, negative = inhibition) at 10uM” value was found to be 16.3%.

For `COC(=O)c1ccc(NC(=S)N2CCC(C(N)=O)CC2)cc1`, the “hERG current change (%, negative = inhibition) at 10uM” value is listed as 12.2%.

Take `CCC(CC)NC(=O)c1cc(OC)c(OC)cc1[N+](=O)[O-]`: the “hERG current change (%, negative = inhibition) at 10uM” value was found to be 26.5%.

As for `Cc1cccc2cc(COC(=O)c3ccco3)c(=O)[nH]c12`, the “hERG current change (%, negative = inhibition) at 10uM” value came to 1.12%.

For `O=C(Nc1nc2c(s1)CCCC2)c1cc(-c2ccncc2)nc2ccccc12`, the “hERG current change (%, negative = inhibition) at 10uM” value is recorded as -4.4%.

Regarding `COc1ccc(Cl)cc1NC(=O)c1nnn(CC(=O)Nc2ccc(C)c(C)c2)c1N`, the “hERG current change (%, negative = inhibition) at 10uM” value is 9.23%.

With `COc1ccc(OC)c(CC(NC(C)=O)C(=O)NC2CCN(c3nnnn3-c3ccccc3)CC2)c1` (stereo not drawn), the “hERG current change (%, negative = inhibition) at 10uM” value is 2.08%.

In the case of `Cc1cc(C(=O)CSc2nc(N)cc(N)n2)c(C)n1-c1cccc(F)c1`, the “hERG current change (%, negative = inhibition) at 10uM” value was -14.2%.

For `CCCC#Cc1ccc2c(c1)COc1c3ccccc3nn1-2`, the “hERG current change (%, negative = inhibition) at 10uM” value is 7.29%.

On to `COc1ccc(NC(=O)CN2C(=O)NC3(CCCC3)C2=O)c(OC)c1`, for which the “hERG current change (%, negative = inhibition) at 10uM” value is reported as 24.1%.

As to `CCc1nc(CNC(=O)C2CCC(=O)N(CCc3ccc(OC)cc3)C2)cs1` (stereo not drawn), the “hERG current change (%, negative = inhibition) at 10uM” value worked out at 7.97%.

As to `COc1cc(NC(=O)C(C)Oc2ccccc2)ccc1NC(=O)COc1ccccc1` (stereo not drawn), the “hERG current change (%, negative = inhibition) at 10uM” value was 0.7%.

As to `CCOC(=O)C1=C(COC(=O)/C=C/c2ccc(Cl)cc2)NC(=O)NC1C` (stereo not drawn), the “hERG current change (%, negative = inhibition) at 10uM” value was 18.5%.

Regarding `Cl.O=C(CN1CCN(C(=O)c2cccc(F)c2)CC1)NC1CCCCC1`, the “hERG current change (%, negative = inhibition) at 10uM” value worked out at 2.39%.

For `Cc1nn(C)c(C(=O)NC(=S)Nc2ccccc2O)c1Cl`, the “hERG current change (%, negative = inhibition) at 10uM” value is on record as -1.79%.

Consider `Cc1ccc(NC(=O)C(=O)NCCN2CCN(C(=S)Nc3ccccc3)CC2)cc1`, for which the “hERG current change (%, negative = inhibition) at 10uM” value was -19.1%.

As for `N#Cc1ccc(NC(=O)CN2CCCC2)cc1Cl`, the “hERG current change (%, negative = inhibition) at 10uM” value came to 0.986%.

As to `CC(=O)c1cccc(NC(=O)C(NC(C)C)c2ccccc2)c1` (stereo not drawn), the “hERG current change (%, negative = inhibition) at 10uM” value is reported as 10.5%.

Take `Cc1cccc(C)c1OCC1CNC(=O)O1` (stereo not drawn): the “hERG current change (%, negative = inhibition) at 10uM” value is 0.573%.

For `COc1cc(NC(=O)CN2C(=O)C(c3ccccc3)=NC2(C)C)cc(OC)c1`, the “hERG current change (%, negative = inhibition) at 10uM” value is 7.18%.

Consider `O/N=C1\CCSc2ccc(F)cc21`, for which the “hERG current change (%, negative = inhibition) at 10uM” value was -6.52%.

For the molecule `CCCc1nnc(SCC(=O)N2CCCCC2)n1CC1CCCO1` (stereo not drawn), the “hERG current change (%, negative = inhibition) at 10uM” value was -0.393%.

Take `O=C(c1cc(-c2ccc(Cl)cc2)on1)N1CCOCC1`: the “hERG current change (%, negative = inhibition) at 10uM” value is -0.136%.

Regarding `C/C(CC(=O)Nc1ccc2c(c1)OCCO2)=N\NC(=O)COc1ccccc1`, the “hERG current change (%, negative = inhibition) at 10uM” value was -9.15%.

On to `CC(NC(=O)c1noc2c1CCCCC2)c1ccccc1` (stereo not drawn), for which the “hERG current change (%, negative = inhibition) at 10uM” value is -30.4%.

`O=C(N/N=C/c1cccs1)c1[nH]ncc1Br`: the “hERG current change (%, negative = inhibition) at 10uM” value is 13.8%.

On to `Cc1cccc(NC(=O)CNC(=O)c2ccc3c(c2)OCO3)n1`, for which the “hERG current change (%, negative = inhibition) at 10uM” value is 4.92%.

For `Cc1ccc(-c2nnn(CC(=O)N(CC3CCCO3)C(C(=O)NCC3CCCO3)c3ccc(F)cc3)n2)o1` (stereo not drawn), the “hERG current change (%, negative = inhibition) at 10uM” value was found to be 11.3%.

On to `Br.Nc1nc(-c2ccccc2)c(N=Nc2ccccc2Cl)s1`, for which the “hERG current change (%, negative = inhibition) at 10uM” value is given as 5.41%.

`CCCSc1nsc(NC(=O)c2cccnc2OCC)n1`: the “hERG current change (%, negative = inhibition) at 10uM” value worked out at 6.12%.

For `Clc1ccccc1OCc1nn2c(-c3ccncc3)nnc2s1`, the “hERG current change (%, negative = inhibition) at 10uM” value was -30.5%.

For `CN(Cc1ccccc1)C(=O)CCc1ccccc1`, the “hERG current change (%, negative = inhibition) at 10uM” value is -4.6%.

Consider `COC(=O)C1=C(c2cccc(C#N)c2)C[C@@H]2CC[C@H]1N2C(=O)NCc1cc(C)oc1C(F)(F)F`, for which the “hERG current change (%, negative = inhibition) at 10uM” value is recorded as -22.4%.

As to `CCCc1nc2c(C)cc(C)cc2c(N)c1CC`, the “hERG current change (%, negative = inhibition) at 10uM” value is -59.2%.

As for `CCc1c(O)nc(SCC(=O)Nc2ccccc2C)n(-c2ccc(C)cc2)c1=O`, the “hERG current change (%, negative = inhibition) at 10uM” value was found to be 8.37%.

Regarding `CC1CN(C(=O)Cn2cc(SCC(=O)N3CCOCC3)c3ccccc32)CC(C)O1` (stereo not drawn), the “hERG current change (%, negative = inhibition) at 10uM” value was 15.9%.

In the case of `CCOC(=O)C1=C(COC(=O)COc2ccc(C#N)cc2)NC(=O)NC1C` (stereo not drawn), the “hERG current change (%, negative = inhibition) at 10uM” value is recorded as -7.13%.

In the case of `COc1cccc(Nc2ncc(C#N)c(N)n2)c1`, the “hERG current change (%, negative = inhibition) at 10uM” value was -4.54%.

For the molecule `Cc1ccc(CNC(=O)CN2C(=O)COc3ccc(S(=O)(=O)N4CCC(C)CC4)cc32)o1`, the “hERG current change (%, negative = inhibition) at 10uM” value is -8.24%.

For `COc1ccccc1CCC(=O)OCC(=O)N1CCN(S(=O)(=O)c2ccc(C)cc2C)CC1`, the “hERG current change (%, negative = inhibition) at 10uM” value is given as -8.16%.

With `COC(=O)CCC(=O)OC1(C)C(=O)C=C2C=C(C3CC3)N(c3cccc(C#N)c3)C=C2C1=O` (stereo not drawn), the “hERG current change (%, negative = inhibition) at 10uM” value is recorded as 3.34%.

For the molecule `Cc1nn(Cc2ccccc2Cl)c(C)c1NC(=O)c1cc(-c2ccc(F)cc2)on1`, the “hERG current change (%, negative = inhibition) at 10uM” value was -3.46%.

In the case of `CC12CCC(=O)N1C(C(=O)Nc1ccccc1F)CS2` (stereo not drawn), the “hERG current change (%, negative = inhibition) at 10uM” value is given as -5.81%.

As for `CN(C)C1=NCCN1CC1CCCCCC1`, the “hERG current change (%, negative = inhibition) at 10uM” value is recorded as -3.28%.

Regarding `Nc1ccc2c(c1)Nc1ccccc1CC2`, the “hERG current change (%, negative = inhibition) at 10uM” value is recorded as 14.7%.

Regarding `O=C(NCCC1CCCCN1S(=O)(=O)c1ccc(Cl)cc1)C(=O)NCc1ccncc1` (stereo not drawn), the “hERG current change (%, negative = inhibition) at 10uM” value is listed as -39.6%.

For `C=C(C)Cn1c(=O)n(CC2CS2)c2ccccc21` (stereo not drawn), the “hERG current change (%, negative = inhibition) at 10uM” value is -1.02%.

For the molecule `Cc1ccc(C)c(NC(=O)CSc2nnc(CNC(=O)c3ccco3)o2)c1`, the “hERG current change (%, negative = inhibition) at 10uM” value is 0.875%.

As for `CC(=O)N/C(=C\c1ccccc1)C(=O)OCC(=O)NC1CCCC1`, the “hERG current change (%, negative = inhibition) at 10uM” value was -2.42%.

Turning to `Cc1nc2ccc(C(=O)O)cc2[nH]1`, the “hERG current change (%, negative = inhibition) at 10uM” value came out at 15.6%.

Turning to `O=C(N/N=C/c1ccc([N+](=O)[O-])cc1)c1c[nH]c2ccccc12`, the “hERG current change (%, negative = inhibition) at 10uM” value is listed as 19.1%.
